Experimental findings from PubChem BioAssay (NCI) are described below.

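Briefly, cells in 96-well plates were exposed to five compound concentrations for 48 h, and endpoints were estimated by linear interpolation. The concentration for 50% growth inhibition is given as GI50.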 A number of entries come with more than one value. This list holds those alone. There may be further records. For part of these data: A record mostly stands for its own series of concentrations, which the source does not state; some values may only mark the edge of a range.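 TGI: concentration producing complete growth inhibition.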 Brackets tell where a record comes from. The letters are not those of the source and start again with each entry. For part of these data: The values listed for one entry repeat one measurement (runs, samples, wells, individuals or studies).

Test systems include CCRF-CEM leukemia; HL-60(TB) leukemia; NCI-H460 lung; P388 leukemia; TK-10 renal; LOX IMVI melanoma; HOP-18 NSCLC; 786-0 renal; SN12C renal; T-47D breast; OVCAR-5 ovarian; SNB-78 CNS; HCT-116 colon; IGROV1 ovarian; RXF 393 renal; CAKI-1 renal; NCI-H522 lung; ACHN renal; KM20L2 colon; MALME-3M melanoma; MOLT-4 leukemia; DMS 273 small cell lung; HT29 colon; DU-145 prostate; SK-MEL-28 melanoma; OVCAR-4 ovarian; MCF7 breast; HCC-2998 colon; UACC-62 melanoma; SNB-75 CNS; MDA-MB-435; A498 renal; NCI-H226 lung; SF-539 CNS; SF-295 CNS; NCI-H23 lung; SR leukemia; U251 CNS; KM12 colon; EKVX NSCLC; A549 NSCLC; HCT-15 colon; K-562 leukemia; SW-620 colon; UACC-257 melanoma; SNB-19 CNS; SK-OV-3 ovarian; SK-MEL-5 melanoma; HOP-92 NSCLC; OVCAR-8 ovarian; HOP-62 NSCLC; COLO 205 colon; OVCAR-3 ovarian; SF-268 CNS; M19-MEL melanoma; RPMI-8226 leukemia; UO-31 renal; SK-MEL-2 melanoma.

Holding throughout (test): NCI tumour cell line growth inhibition, 48 h

As to `CCC1(N)C(=O)OCc2c1cc1n(c2=O)Cc2cc3ccccc3nc2-1` (stereo not drawn), the TGI with CCRF-CEM leukemia was > 100 µM [sample A] and 6.34 µM [sample B]; in the experiment with HL-60(TB) leukemia, 7.04 µM [sample A] and > 100 µM [sample B]; with NCI-H460 lung it was 3.66 µM [sample A] and > 38.8 µM [sample B].
On to `CSC1SCC2C(=O)N(C)C(C(C)C)C(=O)OCC(NC(=O)c3cnc4ccccc4n3)C(=O)NC(C)C(=O)N(C)C1C(=O)N(C)C(C(C)C)C(=O)OCC(NC(=O)c1cnc3ccccc3n1)C(=O)NC(C)C(=O)N2C` (stereo not drawn), for which the TGI is 0.325 nM and 9.32 nM with P388 leukemia; 1.4 nM [sample A] and 14.4 nM, 286 nM [sample B] in the experiment on TK-10 renal; 90.9 nM [sample A, mean of 2 tests] and 395 nM [sample B, mean of 12 tests] and 250 nM [sample B, mean of 3 tests] and 1.28 nM [sample B, mean of 4 tests] in the experiment with LOX IMVI melanoma; 0.437 nM and 379 nM in the experiment with HOP-18 NSCLC; > 3.31 µM [sample A, mean of 2 tests] and 1.76 µM [sample B, 1 test] and 42.7 nM, 18.4 µM [sample B, mean of 3 tests] with 786-0 renal; 59 nM [sample A] and 14.1 nM, 940 nM, 5.13 µM [sample B] in the experiment on SN12C renal. Besides, the TGI in the experiment on T-47D breast was > 10 µM [sample A] and 11.6 nM, 495 nM, 58 µM [sample B]; in the experiment with OVCAR-5 ovarian it was < 1 nM [sample A] and 0.146 nM, 15.2 nM, 43.3 nM [sample B]; in the experiment with SNB-78 CNS, 37.4 nM and 6.25 µM; in the experiment on HCT-116 colon it was 22.3 nM, 6.8 µM, 2.54 µM; in the experiment with IGROV1 ovarian, > 10 µM [sample A] and 59.7 nM, 2.89 µM, 254 nM [sample B]; with RXF 393 renal, 0.0109 nM, 6.17 nM, 9.68 nM. Moreover, the TGI in the experiment with CCRF-CEM leukemia was 3.39 nM [sample A] and 0.738, 26.9, 651, 213 nM [sample B]; in the experiment with CAKI-1 renal it was 1.97 nM [sample A] and 0.00749, 14.9, 46.5, 54.5 nM [sample B]; in the experiment on NCI-H522 lung, > 10 µM [sample A, 1 test] and 0.00368 nM [sample B, mean of 5 tests] and 0.338 nM [sample B, mean of 6 tests]; with HL-60(TB) leukemia, 1.32 nM [sample A] and 0.0242 nM, 8.91 nM, 26.7 nM [sample B]; in the experiment with ACHN renal it was < 1 nM [sample A, 1 test] and 27.1 nM, 923 nM [sample B, mean of 3 tests]; with KM20L2 colon, 0.315 nM, 264 nM, < 20.3 nM. Further, the TGI in the experiment on MALME-3M melanoma is < 1 nM [sample A, 1 test] and 0.000859 nM [sample B, mean of 3 tests] and 1.65 nM [sample B, mean of 4 tests]; in the experiment with MOLT-4 leukemia, < 1 nM [sample A] and 0.125 nM, 11.9 nM, 131 nM, < 19 nM [sample B]; in the experiment with DMS 273 small cell lung it was 0.216 nM and 16.7 nM; with HT29 colon, 81.1 nM [sample A] and 0.112, 43.3, 750, 44.4 nM [sample B]; in the experiment on DU-145 prostate, 3.14 µM [sample A, 1 test] and > 100 µM [sample B, 1 test] and 1.77 µM [sample B, mean of 3 tests]; with SK-MEL-28 melanoma it was 1.2 nM [sample A, mean of 2 tests] and 1.19 nM [sample B, mean of 4 tests] and 0.00792 nM [sample B, mean of 5 tests]. For the same molecule, the TGI in the experiment with OVCAR-4 ovarian is 0.507, 8.73, 8.89, 40 nM; in the experiment with MCF7 breast it was 658 nM and 35 µM; in the experiment with HCC-2998 colon it was < 1 nM [sample A] and 0.0114 nM, 5.54 nM, 16.9 nM [sample B]; in the experiment on UACC-62 melanoma, 1.99 nM [sample A, mean of 2 tests] and 0.00195 nM [sample B, mean of 4 tests] and 0.642 nM [sample B, mean of 5 tests]; with SNB-75 CNS it was 3.06 nM [mean of 4 tests] and 0.0156 nM [mean of 5 tests]; with MDA-MB-435, < 1 nM [sample A] and 10 nM [sample B]. Also, the TGI in the experiment on A498 renal was < 1 nM [sample A] and 0.48 nM, 3.66 nM, 22.2 nM [sample B]; in the experiment on NCI-H226 lung, 22.8 nM [sample A] and 0.00437 nM, 5.81 nM, 20.9 nM, < 33.9 nM [sample B]; in the experiment with SF-539 CNS it was < 1 nM [sample A, mean of 2 tests] and 2.57 nM [sample B, mean of 4 tests] and 0.0817 nM [sample B, mean of 5 tests]; with NCI-H460 lung, 11.1 nM, 111 nM, 3.56 µM; with SF-295 CNS it was 1.45 nM [sample A] and 0.863, 16.7, 21.7, 86.9 nM [sample B]; with NCI-H23 lung, < 1 nM [sample A, 1 test] and 0.0776 nM [sample B, mean of 4 tests] and 2.02 nM [sample B, mean of 6 tests] and 27.3 nM [sample B, mean of 9 tests]. The TGI with SR leukemia was 5.32 nM and 3.11 µM; in the experiment on U251 CNS, > 5.38 µM [sample A] and 724 nM, 154 nM [sample B]; in the experiment with KM12 colon, < 1 nM [sample A] and 4.81 nM, 78.4 nM, < 37 nM [sample B]; in the experiment on EKVX NSCLC, 2.04 nM [sample A] and 0.694, 32.4, 29.6, 24.3 nM [sample B]; in the experiment on A549 NSCLC it was 4.52 nM [sample A] and 0.513 nM, 342 nM, 12.2 µM [sample B]; in the experiment with HCT-15 colon it was > 3.4 µM [sample A] and 54.7 nM, 839 nM, 2.16 µM [sample B]. The TGI is > 2.2 µM [sample A, mean of 2 tests] and 311 nM [sample B, mean of 3 tests] and 0.197 nM, 40.3 nM [sample B, mean of 5 tests] and 2.73 µM [sample B, mean of 9 tests] in the experiment with K-562 leukemia; 2.92 µM [sample A] and 24 nM, 1.41 µM, 1.73 µM [sample B] with SW-620 colon; < 1 nM [sample A, 1 test] and 0.0243 nM [sample B, mean of 4 tests] and 2.22 nM [sample B, mean of 5 tests] in the experiment on UACC-257 melanoma; > 5.37 µM [sample A] and 49.6 nM, 1.39 µM, 2.43 µM [sample B] in the experiment with SNB-19 CNS; > 10 µM [sample A] and 44.4 nM, 1.03 µM, 4.55 µM [sample B] in the experiment with SK-OV-3 ovarian; 0.032 nM, 2.22 nM, 75.4 nM with SK-MEL-5 melanoma. Besides, the TGI in the experiment on HOP-92 NSCLC was 4.66 nM [sample A, mean of 2 tests] and 1.49 nM [sample B, mean of 4 tests] and 0.00612 nM [sample B, mean of 5 tests] and < 40.2 nM [sample B, mean of 6 tests]; in the experiment on OVCAR-8 ovarian it was 2.17 nM [sample A] and 0.425, 24.1, 111, 175 nM [sample B]; in the experiment with HOP-62 NSCLC, 2.67 nM [sample A] and 0.0294 nM, < 17.6 nM, 21.6 nM [sample B]; with COLO 205 colon it was > 10 µM [sample A] and 0.0134 nM, 3.23 nM, 7.59 nM [sample B]; with OVCAR-3 ovarian, < 1 nM [sample A] and 0.00672 nM, 3.46 nM, 58.1 nM [sample B]; in the experiment with SF-268 CNS, 0.176 nM, 20.3 nM, 164 nM, < 11.2 nM. Besides, the TGI in the experiment on M19-MEL melanoma is 0.0174 nM, < 32.4 nM [mean of 4 tests] and 8.54 nM [mean of 7 tests]; in the experiment on RPMI-8226 leukemia it was < 1 nM [sample A] and 0.3, 12.4, 714, 944 nM [sample B]; in the experiment on UO-31 renal, > 10 µM [sample A] and 0.633 nM, 24.3 nM, 29.7 nM, < 13.1 nM [sample B]. The GI50 with M19-MEL melanoma is 0.00741 nM, < 17.5 nM [mean of 4 tests] and 7.5 nM [mean of 7 tests].
Regarding `O=C(N[C@@H](Cc1ccccc1)B(O)O)[C@H](Cc1cccc2ccccc12)NC(=O)N1CCOCC1`, the TGI in the experiment on SK-MEL-2 melanoma was 4.97 nM and 50.4 nM.
As to `CCCCCCC(O)C(O)CCC(O)C1CCC(CCCCC(O)CC2=CC(C)OC2=O)O1` (stereo not drawn), in the experiment with ACHN renal, the TGI was 5.83 µM and 77.1 µM.
